Data as given in a collection of fitness landscapes (doi:10.1126/science.1257360).
The list shows a part of the results.

B1: PhoQ; a variant is named by its letters at X, in order, P23837 (parent)
chain: MKKLLRLFFPLSLRVRFLLATAAVVLVLSLAYGMVALIGYSVSFDKTTFRLLRGESNLFYTLAKWENNKLHVELPENIDKQSPTMTLIYDENGQLLWAQRDVPWLMKMIQPDWLKSNGFHEIEADVNDTSLLLSGDHSIQQQLQEVREDDDDAEMTHSVAVNVYPATSRMPKLTIVVVDTIPVELKSSYMVWSWFIYVLSANLLLVIPLLWVAAWWSLRPIEALAKEVRELEEHNRELLNPATTRELTSLVRNLNRLLKSERERYDKYRTTLTDLTHSLKTPLXXLQXXLRSLRSEKMSVSDAEPVMLEQISRISQQIGYYLHRASMRGGTLLSRELHPVAPLLDNLTSALNKVYQRKGVNISLDISPEISFVGEQNDFVEVMGNVLDNACKYCLEFVEISARQTDEHLYIVVEDDGPGIPLSKREVIFDRGQRVDTLRPGQGVGLAVAREITEQYEGKIVAGESMLGGARMEVIFGRQHSAPKDE

Variants of: B1
Test: enrichment ratio after two sorts for PhoP signalling (ratio (wild type AVST 3.29)); higher = more functional
Settings: with PhoP (E. coli)

Row | Variant | enrichment ratio
1 | INTM | ≤ 0.25
2 | LYNM | ≤ 0.25
3 | IWVT | ≤ 0.25
4 | EKLY | ≤ 0.25
5 | PSCM | ≤ 0.25
6 | RMHI | ≤ 0.25
7 | YEIN | ≤ 0.25
8 | GGEI | ≤ 0.25
9 | AIWM | ≤ 0.25
10 | QKFQ | 4.36
11 | PKKF | ≤ 0.25
12 | WSAN | ≤ 0.25
13 | DMKF | ≤ 0.25
14 | FSSI | 0.692
15 | TECN | 60.8
16 | TARW | ≤ 0.25
17 | FYKY | ≤ 0.25
18 | LITW | ≤ 0.25
19 | KDNQ | ≤ 0.25
20 | YYMD | ≤ 0.25
21 | AEQC | 16
22 | FYEL | ≤ 0.25
23 | QCIT | ≤ 0.25
24 | VKYV | ≤ 0.25

Row | Variant | enrichment ratio
25 | PHCH | ≤ 0.25
26 | GECM | 15.3
27 | AGPN | ≤ 0.25
28 | FWIH | ≤ 0.25
29 | YSAY | ≤ 0.25
30 | VDEE | ≤ 0.25
31 | QVTG | ≤ 0.25
32 | SIQM | 1.35
33 | MYFH | ≤ 0.25
34 | PMVF | ≤ 0.25
35 | RRLC | ≤ 0.25
36 | ITHL | ≤ 0.25
37 | PQSF | ≤ 0.25
38 | DLAK | ≤ 0.25
39 | GKHH | ≤ 0.25
40 | ANGN | 8.08
41 | HIPH | ≤ 0.25
42 | LDGH | ≤ 0.25
43 | QEGE | ≤ 0.25
44 | KTVA | ≤ 0.25
45 | MQTC | ≤ 0.25
46 | SLSH | 8.37
47 | PTWW | ≤ 0.25
48 | KQDD | ≤ 0.25

Row | Variant | enrichment ratio
49 | EYPI | ≤ 0.25
50 | FIDA | ≤ 0.25
51 | WAMS | ≤ 0.25
52 | VEPE | ≤ 0.25
53 | MGLF | 2.83
54 | IYGY | ≤ 0.25
55 | MLDY | ≤ 0.25
56 | YCVS | ≤ 0.25
57 | MYTI | ≤ 0.25
58 | QAIW | ≤ 0.25
59 | VFVR | ≤ 0.25
60 | TGAL | 15.9
61 | GRLV | 0.785
62 | RRTH | ≤ 0.25
63 | GGQI | ≤ 0.25
64 | EYFI | ≤ 0.25
65 | RAMI | ≤ 0.25
66 | FRPK | ≤ 0.25
67 | FSLS | 9.54
68 | NHLL | ≤ 0.25
69 | FYRD | ≤ 0.25
70 | VASG | ≤ 0.25
71 | PTSF | ≤ 0.25
72 | WCGG | ≤ 0.25

Row | Variant | enrichment ratio
73 | GELM | 15.9
74 | DFNP | ≤ 0.25
75 | NECQ | ≤ 0.25
76 | HEWA | ≤ 0.25
77 | GLKR | ≤ 0.25
78 | HSNC | ≤ 0.25
79 | ADNQ | ≤ 0.25
80 | SWLF | ≤ 0.25
81 | QRGS | ≤ 0.25
82 | KILV | ≤ 0.25
83 | MWVF | ≤ 0.25
84 | FFKA | 0.521
85 | NCRA | ≤ 0.25
86 | DRDG | ≤ 0.25
87 | KRDK | ≤ 0.25
88 | ENCI | ≤ 0.25
89 | RQPY | ≤ 0.25
90 | HREH | ≤ 0.25
91 | EYDE | ≤ 0.25
92 | EEII | ≤ 0.25
93 | SECW | 9.58
94 | QFWT | ≤ 0.25
95 | HEEE | ≤ 0.25
96 | DMNL | ≤ 0.25

Row | Variant | enrichment ratio
97 | SWPH | ≤ 0.25
98 | FDSR | ≤ 0.25
99 | KHLN | ≤ 0.25
100 | MVDP | ≤ 0.25
101 | VFSQ | ≤ 0.25
102 | FGEM | ≤ 0.25
103 | QLNF | ≤ 0.25
104 | TWVS | ≤ 0.25
105 | SGDP | ≤ 0.25
106 | MAVT | ≤ 0.25
107 | FSCC | 1.27
108 | DSEL | ≤ 0.25
109 | PQNK | ≤ 0.25
110 | KMLL | ≤ 0.25
111 | NMFR | ≤ 0.25
112 | PGIG | ≤ 0.25
113 | TCTC | 11.4
114 | ILMS | ≤ 0.25
115 | GSYH | ≤ 0.25
116 | SKHP | ≤ 0.25
117 | HVFL | ≤ 0.25
118 | SDIF | ≤ 0.25
119 | ITPF | ≤ 0.25
120 | SHHN | ≤ 0.25

Row | Variant | enrichment ratio
121 | SEGF | 12.8
122 | TTID | ≤ 0.25
123 | GYAN | ≤ 0.25
124 | GWII | ≤ 0.25
125 | EPHS | ≤ 0.25
126 | DIFF | ≤ 0.25
127 | ENAF | ≤ 0.25
128 | KMFN | ≤ 0.25
129 | VKYC | ≤ 0.25
130 | NHSI | ≤ 0.25
131 | EEPL | ≤ 0.25
132 | GAWF | ≤ 0.25
133 | IMSS | ≤ 0.25
134 | SHVQ | ≤ 0.25
135 | GQPM | ≤ 0.25
136 | DVHW | ≤ 0.25
137 | PEYS | ≤ 0.25
138 | ETLV | ≤ 0.25
139 | MNRQ | ≤ 0.25
140 | AMDE | ≤ 0.25
141 | RMMK | ≤ 0.25
142 | REQL | ≤ 0.25
143 | SCMI | 27.9
144 | SGYL | 7.04

Row | Variant | enrichment ratio
145 | KTDE | ≤ 0.25
146 | IPHL | ≤ 0.25
147 | VQAA | ≤ 0.25
148 | MVPA | ≤ 0.25
149 | WQNR | ≤ 0.25
150 | IDVV | ≤ 0.25
151 | DAFH | ≤ 0.25
152 | YCSL | ≤ 0.25
153 | WPGI | ≤ 0.25
154 | AENP | ≤ 0.25
155 | WVVV | ≤ 0.25
156 | VFRP | ≤ 0.25
157 | PAMY | ≤ 0.25
158 | LCDT | ≤ 0.25
159 | NWCP | ≤ 0.25
160 | YIGD | 0.38
161 | LQAW | ≤ 0.25
162 | WIFR | ≤ 0.25
163 | RYQR | ≤ 0.25
164 | KYPH | ≤ 0.25
165 | IEKA | ≤ 0.25
166 | GWCA | ≤ 0.25
167 | EGRQ | ≤ 0.25
168 | DEIL | ≤ 0.25

Row | Variant | enrichment ratio
169 | WNKC | ≤ 0.25
170 | LYKG | ≤ 0.25
171 | MNCE | ≤ 0.25
172 | YKDD | ≤ 0.25
173 | PFLQ | ≤ 0.25
174 | LRCK | ≤ 0.25
175 | KHRL | ≤ 0.25
176 | NVKF | ≤ 0.25
177 | VQWQ | ≤ 0.25
178 | QKDV | ≤ 0.25
179 | NAIN | ≤ 0.25
180 | NFLV | ≤ 0.25
181 | WFKL | ≤ 0.25
182 | SNRG | ≤ 0.25
183 | DSKI | ≤ 0.25
184 | YAIR | ≤ 0.25
185 | IVWW | ≤ 0.25
186 | FKTQ | ≤ 0.25
187 | PPTV | ≤ 0.25
188 | SITE | 3.32
189 | SEMI | 17.1
190 | FTIT | ≤ 0.25
191 | PWKR | ≤ 0.25
192 | YGQK | ≤ 0.25

Row | Variant | enrichment ratio
193 | MEFD | ≤ 0.25
194 | NEVD | ≤ 0.25
195 | WKHT | ≤ 0.25
196 | AREA | ≤ 0.25
197 | ASMR | ≤ 0.25
198 | NIGL | ≤ 0.25
199 | TALC | 20.9
200 | HFKS | ≤ 0.25
201 | WKMI | ≤ 0.25
202 | ECQK | ≤ 0.25
203 | DVDS | ≤ 0.25
204 | MRPG | ≤ 0.25
205 | LHSM | ≤ 0.25
206 | IRTG | ≤ 0.25
207 | ERGE | ≤ 0.25
208 | NVDP | ≤ 0.25
209 | YCMR | ≤ 0.25
210 | FFNR | ≤ 0.25
211 | LELH | 0.321
212 | SYLY | 0.406
213 | GSYW | ≤ 0.25
214 | PWNV | ≤ 0.25
215 | PHVC | ≤ 0.25
216 | TEPR | ≤ 0.25

Row | Variant | enrichment ratio
217 | LCYK | ≤ 0.25
218 | KKNY | ≤ 0.25
219 | YEMK | ≤ 0.25
220 | EGSS | ≤ 0.25
221 | IPLF | ≤ 0.25
222 | RFAP | ≤ 0.25
223 | DWTF | ≤ 0.25
224 | VVAD | ≤ 0.25
225 | NILV | 0.722
226 | DVLY | ≤ 0.25
227 | NGSE | ≤ 0.25
228 | RMFQ | ≤ 0.25
229 | ILWP | ≤ 0.25
230 | THIT | ≤ 0.25
231 | AVAM | 3.19
232 | EHVC | ≤ 0.25
233 | PLYC | ≤ 0.25
234 | WFFV | ≤ 0.25
235 | PVNP | ≤ 0.25
236 | DCHW | ≤ 0.25
237 | IHAV | ≤ 0.25
238 | RILM | ≤ 0.25
239 | QFMT | ≤ 0.25
240 | ISLW | ≤ 0.25

Row | Variant | enrichment ratio
241 | PACM | ≤ 0.25
242 | VWDL | ≤ 0.25
243 | MIRY | ≤ 0.25
244 | FIYY | ≤ 0.25
245 | GHLP | ≤ 0.25
246 | DIAS | ≤ 0.25
247 | MYCQ | ≤ 0.25
248 | LWVW | ≤ 0.25
249 | GRYA | ≤ 0.25
250 | KGCQ | ≤ 0.25
251 | DPPP | ≤ 0.25
252 | MGWA | ≤ 0.25
253 | MMGK | ≤ 0.25
254 | LGHD | ≤ 0.25
255 | RFTT | ≤ 0.25
256 | MEMT | ≤ 0.25
257 | DFMQ | ≤ 0.25
258 | WWRR | ≤ 0.25
259 | QIDP | ≤ 0.25
260 | CFNC | ≤ 0.25
261 | PHFR | ≤ 0.25
262 | STLH | 12.2
263 | SEVT | 16.8
264 | PPTH | ≤ 0.25

Row | Variant | enrichment ratio
265 | RDVL | ≤ 0.25
266 | DMKS | ≤ 0.25
267 | QHIW | ≤ 0.25
268 | GFPE | ≤ 0.25
269 | MYCM | ≤ 0.25
270 | QGGI | 6.02
271 | GKFH | ≤ 0.25
272 | HGGC | ≤ 0.25
273 | MGEQ | ≤ 0.25
274 | TQEM | ≤ 0.25
275 | WKVA | ≤ 0.25
276 | LQNN | ≤ 0.25
277 | DKNY | ≤ 0.25
278 | TVIA | ≤ 0.25
279 | MLWK | ≤ 0.25
280 | GGLA | 9.6
281 | PCEM | ≤ 0.25
282 | VEAW | ≤ 0.25
283 | DWDC | ≤ 0.25
284 | VDVN | ≤ 0.25
285 | WVFT | ≤ 0.25
286 | KCIF | ≤ 0.25
287 | NDVC | ≤ 0.25
288 | WTNM | ≤ 0.25

Row | Variant | enrichment ratio
289 | QHLG | ≤ 0.25
290 | VAEP | ≤ 0.25
291 | NRKM | ≤ 0.25
292 | IGCV | ≤ 0.25
293 | SILS | 4.95
294 | PKNL | ≤ 0.25
295 | RFPC | ≤ 0.25
296 | WAFE | ≤ 0.25
297 | RFCC | ≤ 0.25
298 | SMSW | ≤ 0.25
299 | MCYK | ≤ 0.25
300 | EDYR | ≤ 0.25
301 | NMDW | ≤ 0.25
302 | ADWC | ≤ 0.25
303 | PHLV | ≤ 0.25
304 | VFCN | ≤ 0.25
305 | AGLY | 5.76
306 | GSCL | 21.5
